This is an account of results in PubChem BioAssay AID463173 (ICCB-Longwood Screening Facility, Harvard Medical School, 2010).

Molecules are shown by their SMILES. The campaign covered roughly 52,000 compounds. About 4,300 (8.3%) were called active. Cut-off read from the data, not from the text of the source: active = survival mostly below about 52% (no sharp cut-off); inactive = mostly above about 56%. The list shows a part of the results.

In this assay the test system is DeltatarO mutant. Put plainly: S. aureus survival, RN4220 and DeltatarO strains – OD600, teichoic acid synthesis inhibitors, primary screen (AID 463173). To be noted: S. aureus RN4220 wild type/DeltatarO growth, OD600, 18 h, stronger effect = lower value, screened at 18.75 µg/mL (by protocol).
On to `O=C(COc1cccc(Cl)c1)N1CCC(c2nc3ccccc3s2)CC1`, for which the survival is active: 44%.

Regarding `CCC(C(=O)N1CC2(C)CC1CC(C)(C)C2)N1C(=O)c2ccccc2C1=O` (stereo unspecified), the survival was inactive: 91%.

With `COC1=NS(=O)(=O)c2ccccc21`, the survival was inactive: 89%.

As to `O=S1(=O)CCC(N2CCCCC2)C1` (stereo unspecified), the survival is inactive: 95%.

As for `Cc1ccc(NC(=O)C2CCN(c3ncccn3)CC2)cc1F`, the survival was active: 53%.

Take `COc1cccc(C(=O)Nc2ccccc2SCc2cc(=O)c3cccc(C)c3[nH]2)c1`: the survival is inactive: 72%.

Consider `Cc1cccc2cc(CN(C(=O)C(F)(F)F)C3CCCC3)c3nnnn3c12`, for which the survival was inactive: 100%.

`Cc1cc(C)cc(NC(=O)c2cc(S(=O)(=O)N3CCOCC3)cn2C)c1`: the survival is inactive: 67%.

For the molecule `Cc1ccc(Cl)cc1N1CCN(C(=O)c2cnn(-c3ccc(Cl)cc3)c2C2CCNCC2)CC1`, the survival was inactive: 78%.

Take `N#Cc1c[nH]n2c(NC3CCCC3)c(-c3ccc(Br)cc3)nc12`: the survival is inactive: 88%.

For the molecule `O=C(O)c1cccc(NC(=O)c2cccc(S(=O)(=O)Nc3cccc(F)c3)c2)c1`, the survival is inactive: 166%.

On to `O=S(=O)(Nc1ccc(-c2ccc(N3CCCC3)nn2)cc1)c1ccccc1Cl`, for which the survival was inactive: 66%.

Regarding `Cn1c(SCC(=O)N2c3ccccc3CCc3ccccc32)nnc1C1CC1`, the survival was inactive: 91%.

In the case of `CCOc1cccc(C2c3c(oc4ccc(F)cc4c3=O)C(=O)N2CCOC)c1` (stereo unspecified), the survival was inactive: 74%.

With `CCCNC(=O)C1CCC(Cn2c(=O)c3sccc3n(CC(=O)N3CCCC(C)C3)c2=O)CC1` (stereo unspecified), the survival was inactive: 87%.

For the molecule `CC(=O)C1=C(c2ccc(C)cc2)N(C(C)=O)n2c(nnc2-c2ccccc2)S1`, the survival was inactive: 126%.

As for `CCOc1ccc(C(=O)NC2CCN(CC(=O)NCc3ccccc3)CC2)cc1`, the survival was inactive: 107%.

For `COc1ccc(S(=O)(=O)NCC(c2ccc(N(C)C)cc2)N2CCCC2)cc1F` (stereo unspecified), the survival is inactive: 98%.

`N#C/C(=C\c1ccc2c(c1)OCO2)c1ccccc1`: the survival was inactive: 82%.

Turning to `Cc1cc(C)c(NC(=O)Cn2nnc(-c3nc(-c4ccncc4)no3)c2N)c(C)c1`, the survival was inactive: 94%.

Regarding `Cc1cccc(-c2nnn3c2nc(NCCC(C)C)c2ccccc23)c1`, the survival is inactive: 99%.

As for `CCOc1ccc(C2c3c(oc4ccccc4c3=O)C(=O)N2Cc2ccc3c(c2)OCO3)cc1` (stereo unspecified), the survival was active: 36%.

Regarding `Cc1ccc(Nc2c(-c3ccc(N4CCOCC4)cc3)nc3ccc(Cl)cn23)cc1`, the survival was inactive: 100%.

Regarding `Cc1cc2c(cc1S(=O)(=O)N1CCC(C(N)=O)CC1)OCC(=O)N2`, the survival is inactive: 91%.

Take `CC(=O)c1ccc(NC(=O)/C=C/c2ccc(C)o2)cc1`: the survival was inactive: 48%.

With `CCn1c2ccccc2c2cc(/C=N/NC(=O)Cc3cccs3)ccc21`, the survival was inactive: 78%.

`COc1cn(CC(=O)Nc2ccc(C)cc2C)c(CN2CCCCC2)cc1=O`: the survival is inactive: 71%.

Take `COc1cccc(C(=O)Nc2ccc(-c3nc4ccc(C)cc4s3)cc2)c1OC`: the survival is inactive: 49%.

As for `O=C(CSc1nc2c([nH]c3ccccc32)c(=O)n1-c1cccc(C(F)(F)F)c1)N1CCCC1`, the survival is inactive: 71%.

In the case of `CCOC(=O)c1cccc(NC(=O)C2(S(=O)(=O)c3ccc(C)cc3)CC2)c1`, the survival was inactive: 81%.

Turning to `CCCS(=O)(=O)N1CC(=O)N(c2ccccc2C)C(C)(C(=O)NC2CCCCC2)C1` (stereo unspecified), the survival is inactive: 75%.

Take `Cc1ccc(S(=O)(=O)c2nnn3c2nc(NCc2ccc(F)cc2)c2sccc23)cc1C`: the survival was inactive: 47%.

Take `CC(C)OCCCn1c(=O)c2ccccc2n2c(-c3ccc(F)c(F)c3)nnc12`: the survival was inactive: 97%.

With `CCC1CN(C(=O)N2CCC(C(=O)NCc3ccc(C)o3)CC2)c2ccccc2O1` (stereo unspecified), the survival is inactive: 87%.

As for `COc1ccc(Nc2cc(C(=O)NCc3ccccc3)c3ccccc3n2)cc1`, the survival is inactive: 97%.

Regarding `Cc1nn(-c2ccc(N3CCCC3)nn2)c(C)c1CCC(=O)NCc1ccc(F)cc1`, the survival was inactive: 74%.

`Cc1ccccc1Cn1cc(NC(=O)c2cc(-c3ccc(Cl)cc3)on2)cn1`: the survival is inactive: 72%.

With `Cc1ccc(Cl)cc1N1CCN(S(=O)(=O)c2ccc3oc(=O)c4ncn(C)c4c3c2)CC1`, the survival is inactive: 107%.

Turning to `CCc1ccc(OCC(=O)Nc2ccc(Cl)c(-c3nc4cc(C)cc(C)c4o3)c2)cc1`, the survival was active: 35%.

For `Cc1cccc(OCC(=O)NCC2(N3CCN(C)CC3)CCCCC2)c1`, the survival is inactive: 74%.

On to `S=C(Nc1ccccc1)Nc1ccccn1`, for which the survival is inactive: 89%.

Take `Cc1cccc(NC(=O)CN2C(=O)COc3ccc(S(=O)(=O)Nc4ccccc4)cc32)c1C`: the survival was inactive: 119%.

As for `Cc1[nH]c2ccc(C(=O)NCCc3ccccc3Cl)cc2c1C`, the survival is inactive: 68%.

As to `O=C(Cn1nc(-c2nccc3ccccc23)oc1=O)N1CCCc2ccccc21`, the survival is inactive: 102%.

With `CCOC(=O)C1CCN(C(=O)c2ccc3c(c2)sc2nc(-c4ccc(C)cc4)cn23)CC1`, the survival was inactive: 98%.

As for `COc1ccc(-c2nc3cc(C(C)C)ccc3o2)cc1NC(=O)c1ccc(C)c(Cl)c1`, the survival is active: 21%.

For `O=S(=O)(NCc1nc2cccnc2n1Cc1ccc(F)cc1)c1ccc(Cl)s1`, the survival was active: -5%.

On to `COc1ccc(NC(=O)c2cc(S(=O)(=O)NCCC3=CCCCC3)ccc2F)cc1`, for which the survival was inactive: 94%.

Regarding `COC(=O)c1cc2sc(C)cc2n1CC(=O)Nc1cccc(SC)c1`, the survival is inactive: 74%.

As to `FC(F)(F)c1ccc(-c2noc(-c3ccccc3Br)n2)cc1`, the survival was inactive: 83%.

For the molecule `CCc1ccc(NC(=O)C2CCN(S(=O)(=O)c3c(C)noc3/C=C/c3ccco3)CC2)cc1`, the survival is inactive: 69%.

On to `Cn1ccc2c(OCC(=O)Nc3ccc([N+](=O)[O-])cc3)cccc2c1=O`, for which the survival is inactive: 126%.

Consider `CSc1ccc(CNC(=O)CN2C(=O)C3CCCCN3c3ccc(C(=O)N4CCCC4)cc32)cc1` (stereo unspecified), for which the survival was inactive: 83%.

`COc1ccc(Cn2ccc3nc(C)c(C(=O)N4CCN(c5ccccc5F)CC4)cc3c2=O)cc1`: the survival is inactive: 63%.

Regarding `COc1ccc(CNc2ccc(-c3ccc(OC)cc3)nn2)cc1`, the survival was inactive: 80%.

Take `Cc1ccc(NC(=O)Cn2cc3c(n2)CCC(C)C3)cc1C` (stereo unspecified): the survival was inactive: 89%.

Regarding `O=C(Cc1n[nH]c(=O)c2ccccc12)NCc1ccccc1`, the survival is inactive: 89%.

For `COC(=O)C1CCN(S(=O)(=O)c2ccc(OC)cc2)CC1`, the survival was inactive: 81%.

Turning to `Cc1ccc(CCNC(=O)c2ccc(CS(=O)(=O)Cc3cccc(C)c3)o2)cc1`, the survival is inactive: 89%.

On to `CCc1ccccc1N(C)C(=O)c1nn(C)c2c1CSc1ccccc1-2`, for which the survival was inactive: 75%.

Consider `COC(=O)c1ccc(Oc2nc3c(c(=O)n(C)c(=O)n3C)n2C(C)C)cc1`, for which the survival was inactive: 85%.

Consider `CCCCNC(=O)CSc1nc2cc3c(cc2c(=O)n1CCCCCC(=O)NCCc1ccc(OC)c(OC)c1)OCO3`, for which the survival was inactive: 89%.

As to `Cc1ccc2nc(N3CCC(C(=O)NCc4ccc(F)cc4)CC3)[nH]c2c1`, the survival was inactive: 96%.

`Cc1cc(C)c(S(=O)(=O)NCc2csc(-c3ccccc3)n2)c(C)c1`: the survival is active: 34%.

As to `Cc1ccc2nc(COc3cccc(NC(=O)c4cccc(Cl)c4)c3)cc(=O)n2c1`, the survival is inactive: 70%.

As for `CCn1ccc2cc(S(=O)(=O)N3CCCN(C(=O)NCC(=O)OC)CC3)ccc21`, the survival is inactive: 94%.

On to `Nc1ccc(Cc2nc3ccccc3[nH]2)cc1`, for which the survival was inactive: 86%.

As for `Cc1ccccc1C(=O)NC1(C(F)(F)F)N=C(c2ccccc2)N(Cc2ccccc2)C1=O` (stereo unspecified), the survival is inactive: 134%.

For `Cn1c(NN)nc2ccccc2c1=O`, the survival was inactive: 56%.

As for `Cc1ccc(OCC(=O)Nc2ccc3nc(SCC(=O)N4CCOCC4)sc3c2)cc1C`, the survival is inactive: 75%.

Regarding `CCC(Sc1nc2cc3c(cc2c(=O)n1CCCC(=O)NCc1ccc(OC)cc1)OCO3)C(=O)NCCCOC` (stereo unspecified), the survival is inactive: 84%.

Consider `CCOC(=O)C1CCCN(C(=O)CCS(=O)(=O)c2cc3c(cc2Cl)NC(=O)CO3)C1` (stereo unspecified), for which the survival is inactive: 96%.

With `CCN(CC)C(=O)c1sc2c(c1C)c(=O)n(-c1ccc(C)c(C)c1)c(=O)n2Cc1cccc(Cl)c1`, the survival is inactive: 55%.

With `Cc1ccc2cccc(NC(=O)c3ccc(C#N)cc3F)c2n1`, the survival is inactive: 165%.

`CC(=O)N1CCc2cc(CNS(=O)(=O)c3ccc(C(C)(C)C)cc3)ccc21`: the survival was inactive: 87%.

Turning to `Cc1ccccc1NC(=O)Cn1c(=O)n(CCC(=O)NCc2ccc3c(c2)OCO3)c(=O)c2sccc21`, the survival is inactive: 150%.

Turning to `CCCC(=O)C1=C(N2CCN(C3=C(C(=O)CCC)C(=O)CC(C)(C)C3)CC2)CC(C)(C)CC1=O`, the survival was inactive: 81%.

In the case of `OC1C2CN3CCN(C2)CC1(Cc1ccccc1)C3` (stereo unspecified), the survival is inactive: 89%.

On to `CCC12CN3CC(C)(CN(C1)C3c1c[nH]c3ccc(OC)cc13)C2=O` (stereo unspecified), for which the survival was inactive: 76%.

For `O=C(O)c1snc2c(=O)[nH]cnc12`, the survival was inactive: 95%.

With `O=C(CN1C(=O)CCc2cc(S(=O)(=O)N3CCOCC3)ccc21)NCc1ccccc1Cl`, the survival was inactive: 70%.

With `Cc1oc(C(C)(C)C)cc1C(=O)NCCO`, the survival is inactive: 77%.

On to `Cc1nn(-c2ccc(F)cc2)c(-n2cccc2)c1C(=O)N1CCN(c2ccccc2F)CC1`, for which the survival was inactive: 76%.

`COc1ccccc1CNC(=O)CN(c1ccc(C)cc1)S(=O)(=O)c1c(C)noc1C`: the survival is inactive: 85%.

For the molecule `O=C(Nc1c(-c2ccc(F)cc2)nc2ccccn12)c1cccc(F)c1`, the survival is inactive: 146%.

In the case of `Cc1c(C(=O)Nc2ccc(F)c(F)c2)oc2ccc(S(=O)(=O)N3CCC4(CC3)OCCO4)cc12`, the survival is inactive: 85%.

In the case of `CC(=O)Nc1ccc(NS(=O)(=O)c2ccc(Cl)s2)cc1`, the survival was inactive: 57%.

Take `Nc1ccc2c(c1)ncn2CCO`: the survival was inactive: 88%.

With `CCCCc1ccc(NS(=O)(=O)c2ccc(N3CCCCS3(=O)=O)cc2)cc1`, the survival is inactive: 99%.

On to `CCOc1ccc(C(=O)c2cn(Cc3ccccc3)c3c(F)cc(F)cc3c2=O)cc1`, for which the survival was inactive: 78%.

As for `COc1ccc(OC)c(NC(=O)c2cnc(N3CCCC3)nc2C)c1`, the survival is inactive: 70%.
